Target: T1, cynoAXL, a cynomolgus AXL receptor fragment comprising all extracellular domains of the macaque AXL receptor, … (Cynomolgus macaque (Macaca fascicularis))
T1 construct: also called monkey AXL antigen
T1 chain: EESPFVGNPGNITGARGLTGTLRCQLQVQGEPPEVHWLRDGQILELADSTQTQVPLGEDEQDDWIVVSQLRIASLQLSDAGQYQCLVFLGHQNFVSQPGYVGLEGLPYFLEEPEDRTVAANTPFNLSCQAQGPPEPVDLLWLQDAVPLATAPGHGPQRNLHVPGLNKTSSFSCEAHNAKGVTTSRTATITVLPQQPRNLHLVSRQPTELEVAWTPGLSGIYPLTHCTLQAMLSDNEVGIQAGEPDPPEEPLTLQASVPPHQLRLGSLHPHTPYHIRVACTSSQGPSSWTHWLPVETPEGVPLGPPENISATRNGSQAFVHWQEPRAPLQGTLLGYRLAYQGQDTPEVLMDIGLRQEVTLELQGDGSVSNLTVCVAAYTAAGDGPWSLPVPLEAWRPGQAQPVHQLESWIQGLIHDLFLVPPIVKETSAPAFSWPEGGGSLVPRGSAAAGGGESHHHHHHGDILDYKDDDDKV
Experiment: ELISA, coated antigen, antibody titrated

B1: anti-AXL antibody 01_004_2 (antibody, human IgG1, kappa)
heavy: QVQLVQSGGGVVQPGRSLRLSCAASGFSFSFFGIHWIRQAPGKGLEWVAFTSRDGNDKYYADSVKGRFTISKDNSKNTVYLQMNSLRAEDTAVYYCGRGNLAFDIWGEGTLVTVSSASTKGPSVFPLAPSSKSTSGGTAALGCLVKDYFPEPVTVSWNSGALTSGVHTFPAVLQSSGLYSLSSVVTVPSSSLGTQTYICNVNHKPSNTKVDKRV[human IgG1 Fc with changes omitted here]
light: DIVMTQSPDSLTASAGERATINCKSSQSVLLSANQKNYLAWYQQKPGQSPRLLIYWASTRESGVPDRFSGSGSGTDFTLTISNLQPEDAAVYYCHQGYTLPWTFGSGTKVEIKRTVAAPSVFIFPPSDEQLKSGTASVVCLLNNFYPREAKVQWKVDNALQSGNSQESVTEQDSKDSTYSLSSTLTLSKADYEKHKVYACEVTHQGLSSPVTKSFNRGEC
notes: The heavy chain Fc carries S239D and I332E (EU numbering) and lacks the C-terminal GK
binding result: binds

From EP4724501A1 (dated 2026)
